PubChem BioAssay AID1460 (National Center for Advancing Translational Sciences (NCATS), 2008)
Out of some 270,000 compounds screened, about 5,800 (2.1%) were called active. The inconclusive results got no clear call from the source; some entries with a clear call stand among them for comparison. Calls come from the whole dose curve; as a rule, active = well fitted inhibition curve with a large enough effect; inconclusive = small, poorly fitted or top-dose-only effect; inactive = flat fitted curve, though single readings scatter. Where the call is inconclusive, the potency comes from a doubtful curve fit.

target: Microtubule-associated protein tau (Homo sapiens) (UniProt P10636); assay: qHTS for Inhibitors of Tau Fibril Formation, Thioflavin T Binding; details: recombinant tau K18 P301L (four-repeat tau fragment), heparin-induced fibrillization, ThT fluorescence; series mostly up to 57.4 µM; note: nearly all actives have a fitted effect of over 55% in size
Procedure, shortened: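 In this qHTS, human K18 P301L tau is incubated with compound and heparin for 6 hr at 37 C, and Thioflavin T fluorescence then reports fibril load.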
Potency is the fitted concentration of half-maximal effect; tags give direction and shape of the fitted curve.

Sequence of UniProt P10636 (P10636 whole entry, looked up, the tested form may be a part): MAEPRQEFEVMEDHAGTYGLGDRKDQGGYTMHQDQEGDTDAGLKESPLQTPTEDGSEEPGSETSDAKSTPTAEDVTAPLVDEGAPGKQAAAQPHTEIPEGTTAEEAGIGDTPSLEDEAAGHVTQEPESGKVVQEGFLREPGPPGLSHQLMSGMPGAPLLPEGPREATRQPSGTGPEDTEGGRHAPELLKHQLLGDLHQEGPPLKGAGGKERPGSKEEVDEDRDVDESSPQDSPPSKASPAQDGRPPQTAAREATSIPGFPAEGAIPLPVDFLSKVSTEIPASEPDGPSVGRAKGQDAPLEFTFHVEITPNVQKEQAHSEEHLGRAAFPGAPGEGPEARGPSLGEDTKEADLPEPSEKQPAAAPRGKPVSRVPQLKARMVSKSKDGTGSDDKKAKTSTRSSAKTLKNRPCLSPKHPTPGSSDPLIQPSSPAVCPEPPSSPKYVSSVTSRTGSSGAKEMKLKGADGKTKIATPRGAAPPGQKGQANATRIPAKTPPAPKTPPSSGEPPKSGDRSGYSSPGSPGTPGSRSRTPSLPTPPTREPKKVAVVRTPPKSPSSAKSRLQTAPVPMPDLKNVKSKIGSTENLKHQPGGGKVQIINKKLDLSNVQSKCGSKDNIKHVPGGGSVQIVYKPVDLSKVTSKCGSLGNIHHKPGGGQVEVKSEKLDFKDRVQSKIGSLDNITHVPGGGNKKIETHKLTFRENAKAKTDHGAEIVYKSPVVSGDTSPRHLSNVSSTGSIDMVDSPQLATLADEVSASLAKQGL

Compound	Potency
CC1CCC(C(=O)NNC(=O)c2cc(-c3ccco3)[nH]n2)CC1 (stereo not given)	inconclusive: 10 µM [inhibitor, partial curve]
CNS(=O)(=O)c1cn(CC(=O)N2CCN(c3ccc(C)cc3C)CC2)cc1S(=O)(=O)NC	inactive
Nc1ccc(-c2cnc[nH]2)cc1[N+](=O)[O-]	inconclusive: 12.6 µM [inhibitor, partial curve]
CC(=O)O[C@H]1CC2(C)[C@@H](C[C@@H](O)[C@H]3[C@@]4(C)CC[C@@H](O)[C@@H](C)[C@@H]4CC[C@@]32C)C1=C(CCC=C(C)C)C(=O)O (stereo not given in full)	inconclusive: 5.62 µM [inhibitor, full curve, poor fit]
CCCn1nc(C(=O)NCc2ccc3c(c2)OCO3)c2ccccc2c1=O	inactive
COC(=O)c1sccc1S(=O)(=O)N(CC(=O)NCc1ccc(F)cc1)c1ccc(C)c(C)c1	inactive
CC(C)COc1ccc(Nc2ncnc3ccc(Br)cc23)cc1	inconclusive: 2.82 µM [inhibitor, partial curve]
CCN1C(C)=C(C(=O)OC)C(c2ccccc2)N2C(=O)[C@](O)(C(=O)OC)C(c3ccccc3)C(C(=O)c3ccccc3)=C12 (stereo not given in full)	inconclusive: 2 µM [inhibitor, partial curve, poor fit]
CC(OC(=O)c1cc2sccc2n1C)C(=O)NCc1cccs1 (stereo not given)	inactive
Cc1ccc(CSCCNC(=O)c2ccc(Cl)c(S(=O)(=O)N3CCOCC3)c2)cc1	inconclusive: 31.6 µM [inhibitor, partial curve, poor fit]
O=C(/C=C/Sc1ncn[nH]1)c1ccc(Cl)cc1	inconclusive: 25.1 µM [inhibitor, single point]
COc1ccc(OCC(=O)Nc2ccccc2O)cc1	inconclusive: 28.2 µM [inhibitor, single point]
COc1ccc2c(c1)-c1nc(/N=C/c3ccc(O)c(OC)c3)sc1CC2	active: 31.6 µM
Cc1ccccc1N1C(=O)CC2(CCCC2)CC1=O	inactive
O=C(/C=C/c1cccc([N+](=O)[O-])c1)NCCc1ccc(F)cc1	inconclusive: 20 µM [inhibitor, partial curve]
CC(=O)[C@@H]1[C@@H](C(=O)c2ccccc2)[C@]2(C(=O)Nc3ccccc32)[C@H]2C=Cc3cc(F)ccc3N12	inconclusive: 39.8 µM [inhibitor, single point]
Cc1ccc2c(c1)NC(=O)C(CC(=O)NCc1cccnc1)O2 (stereo not given)	inconclusive: 28.2 µM [inhibitor, single point]
CCN1CCCC1CNC(=O)Cn1ncc2c(=O)oc3ccc(C)cc3c21 (stereo not given)	inconclusive: 39.8 µM [inhibitor, single point]
Cn1cccc1/C=N/NC(=O)c1sc2ccccc2c1Cl	inconclusive: 5.62 µM [inhibitor, partial curve]
Cc1cc(NC(=O)CSc2nnc(-c3ccncc3)n2N)ccc1Br	inconclusive: 3.55 µM [inhibitor, partial curve]
CC(=O)c1c(C)oc(C)c1CSCc1ccc(C(=O)O)o1	inconclusive: 31.6 µM [inhibitor, partial curve]
CCCN1CCCc2cc(CN)ccc21	active: 25.1 µM

Compound	Potency
C=C1c2ccccc2O[C@H](C(=O)OCC)[C@@H]1CCC(C)C (tested in a mixture with another compound)	inconclusive: 63.1 µM [inhibitor, single point]
O=C(Nc1ccc(N2CCCC2)c(Cl)c1)c1ccc([N+](=O)[O-])cc1	inconclusive: 1.58 µM [inhibitor, full curve]
CCc1ccc(C2=NN(c3ccc(S(N)(=O)=O)cc3)C(c3ccc(F)cc3)C2)cc1 (stereo not given)	inconclusive: 44.7 µM [inhibitor, partial curve, poor fit]
CCOC(=O)c1[nH]c2ccccc2c1NC(=O)c1ccccc1OC	inconclusive: 14.1 µM [inhibitor, partial curve]
Cc1ccc(S(=O)(=O)Oc2ccc(/C=C(/NC(=O)c3ccccc3)C(=O)NC(C)C(=O)O)cc2)cc1 (stereo not given)	inconclusive: 1.58 µM [activator, partial curve, poor fit]
O=C(NCc1ccccn1)Nc1ccc2c(c1)OCO2	inactive
O=c1c2ccccc2nc2n1C(CBr)CS2 (stereo not given)	inconclusive: 39.8 µM [inhibitor, single point]
COc1ccc(N=C2SCC(c3ccc(C)cc3)=NN2CCO)cc1	inconclusive: 14.1 µM [inhibitor, partial curve]
CCOC(=O)N1CCN(c2nc(-c3ccc(Cl)cc3)cs2)CC1	inconclusive: 5.62 µM [inhibitor, full curve]
COc1ccc(CC(=O)O/N=C(\N)Cc2cccc3ccccc23)cc1	inconclusive: 22.4 µM [inhibitor, partial curve]
CC(C)CC(C(=O)Nc1oc(-c2ccccc2)c(-c2ccccc2)c1C#N)N1C(=O)c2ccccc2C1=O (stereo not given)	inactive
O=C(Oc1coc(CSc2ncccn2)cc1=O)c1cccc([N+](=O)[O-])c1	inconclusive: 14.1 µM [inhibitor, partial curve]
O=C(N/N=C/c1cc(Br)cc(Br)c1O)c1ccncc1	inconclusive: 12.6 µM [inhibitor, partial curve]
OCCN(CCO)c1ccc(C(c2ccc(Cl)cc2)c2ccc(N(CCO)CCO)cc2Cl)c(Cl)c1	inactive
C=C(C(C)=O)C(O)/C=C/c1ccco1 (stereo not given)	inconclusive: 39.8 µM [inhibitor, single point]
O=C(N=Nc1c(O)[nH]c2ccc([N+](=O)[O-])cc12)c1ccccc1Cl	inconclusive: 7.94 µM [inhibitor, partial curve]
COc1ccc(C2=NN3C(C2)c2ccccc2OC3c2cccs2)cc1 (stereo not given)	inconclusive: 31.6 µM [inhibitor, partial curve]
CC(Oc1ccccc1)C(=O)Nc1nnc(S(=O)(=O)N2CCCCCC2)s1 (stereo not given)	inconclusive: 10 µM [inhibitor, partial curve]
COc1ccc(C(=O)Nc2nnc(S(=O)(=O)N3CCN(c4ccc(C)cc4)CC3)s2)cc1	inconclusive: 25.1 µM [inhibitor, partial curve, poor fit]
Cc1cn2c(=O)cc(COc3cccc(NC(=O)c4ccccc4Cl)c3)nc2s1	inactive
COc1ccc(-c2nnc(SCC(=O)/C(C#N)=C(\C)N)o2)cc1	inconclusive: 3.55 µM [inhibitor, full curve, poor fit]
CCc1ccccc1NC(=O)/C(=C/c1ccco1)c1ccccc1	inconclusive: 20 µM [inhibitor, partial curve]

Compound	Potency
COc1cc(C)ccc1OCCCCOc1ccccc1C(C)=O	inconclusive: 22.4 µM [inhibitor, single point]
Cc1ccc(C2=NNC(=O)C(c3c[nH]c4ccccc34)C2)cc1 (stereo not given)	inconclusive: 10 µM [inhibitor, partial curve]
CCOc1ccc(-c2c(C)nn3c(-c4ccccc4)c(C(=O)NCCOC)cnc23)cc1OCC	inconclusive: 39.8 µM [inhibitor, single point]
O=C(Nc1ccc2c(c1)oc1ccccc12)c1cccnc1	inconclusive: 25.1 µM [activator, single point]
COc1cccc2cc(C(=O)Nc3ccc(F)cc3)c(=Nc3ccc(C(=O)O)cc3)oc12	inconclusive: 35.5 µM [inhibitor, single point]
O=C(CNC(=O)c1ccc(Cl)cc1Cl)OCc1nc2ccccc2s1	inconclusive: 15.8 µM [inhibitor, partial curve]
CC(C)CCN1CCN(C/C=C/c2ccco2)CC1CCO (stereo not given)	inconclusive: 28.2 µM [inhibitor, partial curve]
CNC(=S)N/N=C/c1ccc(-c2ccc(C(=O)O)cc2)o1	inconclusive: 31.6 µM [inhibitor, partial curve]
CC(Sc1nnc(Nc2ccccc2)s1)C(=O)NC1CCCc2ccccc21 (stereo not given)	inactive
COc1ccc(/C=C/C(=O)N2CCC(c3nc4ccccc4o3)CC2)cc1	inconclusive: 15.8 µM [inhibitor, partial curve]
COc1cc(/C=C2/S/C(=N/S(=O)(=O)Cc3ccccc3)NC2=O)c([N+](=O)[O-])cc1OC	inconclusive: 10 µM [inhibitor, partial curve]
COc1ccc(/C=N/N=C2\SC(CC(=O)O)C(=O)N2c2ccccc2)c(OC)c1 (stereo not given)	inactive
CC[C@H](C)[C@H](NS(=O)(=O)c1ccc(C)cc1)C(=O)N1CCC(C(=O)N[C@H](C(=O)O)C(C)C)CC1	inactive
Oc1cnc2ccccc2c1CN1CCOCC1	inactive
O=C(N/N=C/C(Br)=C/c1ccccc1)c1n[nH]c2c1CCC2	inconclusive: 10 µM [inhibitor, partial curve]
Cc1ccc(Cn2cc(C(=O)c3ccc(C)cc3)c(=O)c3ccc(C)nc32)cc1	inconclusive: 15.8 µM [inhibitor, single point]
Cn1c(COc2ccc(Cl)cc2)nnc1SCc1ncc(-c2ccccc2)o1	inactive
Cc1cccc(NC(=O)CSc2cn(CC(=O)N3CCCC3)c3ccccc23)c1C	inconclusive: 11.2 µM [inhibitor, partial curve]
O=C(CN1CCN(c2ccc(O)cc2)CC1)Nc1cc(S(=O)(=O)N2CCCC2)ccc1Cl	inconclusive: 15.8 µM [inhibitor, partial curve]
C/C(=N\NC(=O)c1ccccc1O)C1C(=O)c2ccccc2C1=O	active: 5.01 µM
COc1ccc(C(=O)NNC(=O)CN2CCC(n3nnc4cc(F)ccc43)CC2)cc1	inactive
